From the supplement of paper PMC4967469

Tests used:
Test in all cases: Viability of human cancer cell lines after 72 h of drug (GDSC screen)
Thapsigargin = compound: C/C=C(/C)C(=O)O[C@H]1C(C)=C2[C@H]([C@@H]1OC(=O)CCCCCCC)[C@@](C)(OC(C)=O)C[C@H](OC(=O)CCC)[C@@]1(O)[C@H]2OC(=O)[C@@]1(C)O [Thapsigargin]; conditions: top dose 0.512 µM; top dose inferred
Description: (§1)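 Human cancer cell lines in 384-well plates, medium with 10% serum, drug for 72 h over a 256-fold dose range (nine 2-fold or five 4-fold steps up to the top dose). Adherent lines were fixed and stained with the nucleic acid dye Syto60, suspension lines read with resazurin; signal relative to control wells, capped at 0 and 100%. One two-parameter sigmoid per drug and line, fitted in a mixed model over all curves with the slope shared within a line.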

QL-X-138 = compound: C=CC(=O)Nc1cc(-n2c(=O)ccc3cnc4ccc(-c5cn[nH]c5)cc4c32)ccc1C [QL-X-138]; conditions: top dose 10.24 µM; top dose inferred
Description: as §1

GSK269962A = compound: CCn1c(-c2nonc2N)nc2cnc(Oc3cccc(NC(=O)c4ccc(OCCN5CCOCC5)cc4)c3)cc21 [GSK269962A]; conditions: top dose inferred
Description: as §1

MPS-1-IN-1 = compound: COc1cc(N2CCC(O)CC2)ccc1Nc1cc(Nc2ccccc2S(=O)(=O)C(C)C)c2cc[nH]c2n1 [MPS-1-IN-1]; conditions: top dose 20 µM; top dose inferred
Description: as §1

(5Z)-7-Oxozeaenol = compound: COc1cc(O)c2c(c1)/C=C/C[C@H](O)[C@H](O)C(=O)/C=C\C[C@H](C)OC2=O [(5Z)-7-Oxozeaenol]; conditions: top dose 10 µM; top dose inferred
Description: as §1

CP466722 = compound: COc1cc2ncnc(-n3nc(-c4ccccn4)nc3N)c2cc1OC [CP466722]; conditions: top dose 16 µM; top dose inferred
Description: as §1

Zibotentan = compound: COc1nc(C)cnc1NS(=O)(=O)c1cccnc1-c1ccc(-c2nnco2)cc1 [Zibotentan]; conditions: top dose 20 µM; top dose inferred
Description: as §1

ABT-888 = compound: C[C@]1(c2nc3c(C(N)=O)cccc3[nH]2)CCCN1 [ABT-888]; conditions: top dose 5 µM; top dose inferred
Description: as §1

ABT-869 = compound: Cc1ccc(F)c(NC(=O)Nc2ccc(-c3cccc4[nH]nc(N)c34)cc2)c1 [ABT-869]; conditions: top dose 1.024 µM; top dose inferred
Description: as §1

CHIR-99021 = compound: Cc1cnc(-c2cnc(NCCNc3ccc(C#N)cn3)nc2-c2ccc(Cl)cc2Cl)[nH]1 [CHIR-99021]
Description: as §1

KU-55933 = compound: O=c1cc(-c2cccc3c2Sc2ccccc2S3)oc(N2CCOCC2)c1 [KU-55933]; conditions: top dose 10 µM
Description: as §1

[1] = top dose 5 µM, screen: GDSC drug entry 1192
[2] = top dose 2.56 µM, screen: GDSC drug entry 154
[3] = top dose 10 µM, screen: GDSC drug entry 1241, top dose inferred
[4] = top dose 2.5 µM, screen: GDSC drug entry 127

Row | Cell Line | AUC (Thapsigargin) | IC50 (Thapsigargin) [µM] | AUC (QL-X-138) | IC50 (QL-X-138) [µM] | AUC (GSK269962A; [1]) | IC50 (GSK269962A; [1]) [µM] | AUC (MPS-1-IN-1) | IC50 (MPS-1-IN-1) [µM] | AUC ((5Z)-7-Oxozeaenol) | IC50 ((5Z)-7-Oxozeaenol) [µM] | AUC (CP466722) | IC50 (CP466722) [µM] | AUC (Zibotentan) | IC50 (Zibotentan) [µM] | AUC (ABT-888) | IC50 (ABT-888) [µM] | AUC (ABT-869) | IC50 (ABT-869) [µM] | AUC (CHIR-99021; [2]) | IC50 (CHIR-99021; [2]) [µM] | AUC (CHIR-99021; [3]) | IC50 (CHIR-99021; [3]) [µM] | AUC (KU-55933) | IC50 (KU-55933) [µM] | AUC (GSK269962A; [4]) | IC50 (GSK269962A; [4]) [µM]
1 | 22RV1 (prostate, adherent) | 0.235 | 0.00443 | 0.537 | 0.829 | 0.908 | > 5 | 0.713 | 5.84 | 0.863 | > 10 | 0.789 | 9.02 | 0.982 | > 20 | 0.982 | > 5 | 0.968 | > 1.02 | 0.979 | > 2.56 | 0.918 | > 10 | 0.978 | > 10 | – | –
2 | 5637 (bladder, adherent) | 0.285 | 0.00845 | 0.746 | 2.98 | 0.84 | 2.99 | 0.873 | 16.1 | 0.821 | 5.09 | 0.783 | 6.06 | 0.989 | > 20 | 0.989 | > 5 | 0.979 | > 1.02 | 0.989 | > 2.56 | 0.965 | > 10 | 0.954 | > 10 | – | –
3 | 23132-87 (stomach, adherent) | 0.475 | 0.0272 | 0.732 | 3.01 | 0.91 | > 5 | 0.867 | 19.2 | 0.76 | 3.64 | 0.889 | > 16 | 0.985 | > 20 | 0.986 | > 5 | 0.986 | > 1.02 | 0.978 | > 2.56 | 0.945 | > 10 | 0.946 | > 10 | – | –
4 | A375 (melanoma, adherent) | 0.156 | 0.00375 | 0.969 | > 10.2 | 0.654 | 0.764 | 0.867 | 12.9 | 0.042 | < 0.0391 | 0.847 | 8.79 | 0.991 | > 20 | 0.966 | > 5 | 0.991 | > 1.02 | – | – | 0.837 | 5.09 | 0.927 | > 10 | – | –
5 | A431 (skin, adherent) | 0.226 | 0.0053 | 0.738 | 2.96 | 0.987 | > 5 | 0.84 | 13 | 0.7 | 2.22 | 0.754 | 5.19 | 0.987 | > 20 | 0.987 | > 5 | 0.982 | > 1.02 | 0.988 | > 2.56 | 0.984 | > 10 | 0.971 | > 10 | – | –
6 | AsPC-1 (pancreas, adherent) | 0.779 | 0.391 | 0.869 | > 10.2 | 0.893 | > 5 | 0.972 | > 20 | 0.607 | 1.51 | 0.919 | > 16 | 0.961 | > 20 | 0.968 | > 5 | 0.97 | > 1.02 | 0.964 | > 2.56 | 0.926 | > 10 | 0.938 | > 10 | – | –
7 | BFTC-905 (bladder, adherent) | 0.103 | 0.00214 | 0.685 | 1.94 | 0.987 | > 5 | 0.877 | 15.3 | 0.527 | 0.73 | 0.869 | 11.4 | 0.99 | > 20 | 0.99 | > 5 | 0.99 | > 1.02 | 0.98 | > 2.56 | 0.969 | > 10 | 0.93 | > 10 | – | –
8 | BICR22 (head and neck, adherent) | 0.455 | 0.0236 | 0.906 | > 10.2 | 0.927 | > 5 | 0.964 | > 20 | 0.6 | 1.23 | 0.977 | > 16 | 0.982 | > 20 | 0.953 | > 5 | 0.98 | > 1.02 | 0.979 | > 2.56 | 0.96 | > 10 | 0.956 | > 10 | – | –
9 | BICR78 (head and neck, adherent) | 0.596 | 0.0612 | 0.837 | 8.43 | 0.917 | > 5 | 0.97 | > 20 | 0.557 | 0.915 | 0.923 | > 16 | 0.983 | > 20 | 0.955 | > 5 | 0.982 | > 1.02 | 0.983 | > 2.56 | 0.946 | > 10 | 0.914 | > 10 | – | –
10 | BT-20 (breast, adherent) | 0.722 | 0.161 | 0.738 | 3.68 | 0.981 | > 5 | 0.972 | > 20 | 0.72 | 3.1 | 0.853 | > 16 | 0.983 | > 20 | 0.973 | > 5 | 0.978 | > 1.02 | 0.982 | > 2.56 | 0.963 | > 10 | 0.983 | > 10 | – | –
11 | BxPC-3 (pancreas, adherent) | 0.288 | 0.00744 | 0.886 | > 10.2 | 0.935 | > 5 | 0.871 | > 20 | 0.763 | 4.01 | 0.839 | 12.9 | 0.981 | > 20 | 0.983 | > 5 | 0.974 | > 1.02 | 0.86 | > 2.56 | 0.904 | > 10 | 0.955 | > 10 | – | –
12 | C-33-A (cervix, adherent) | 0.296 | 0.00851 | 0.586 | 1.1 | 0.571 | 0.49 | 0.886 | > 20 | 0.533 | 0.771 | 0.705 | 3.79 | 0.986 | > 20 | 0.982 | > 5 | 0.986 | > 1.02 | 0.96 | > 2.56 | 0.985 | > 10 | 0.974 | > 10 | – | –
13 | CAL-33 (head and neck, adherent) | 0.499 | 0.0318 | 0.674 | 1.95 | 0.827 | 3.05 | 0.916 | > 20 | 0.762 | 3.57 | 0.838 | 10.8 | 0.986 | > 20 | 0.973 | > 5 | 0.986 | > 1.02 | 0.972 | > 2.56 | 0.945 | > 10 | 0.869 | 9.28 | – | –
14 | CAL-51 (breast, adherent) | 0.16 | 0.00359 | 0.903 | > 10.2 | 0.858 | 3.26 | 0.991 | > 20 | 0.535 | 0.769 | 0.907 | > 16 | 0.991 | > 20 | 0.984 | > 5 | 0.991 | > 1.02 | 0.99 | > 2.56 | 0.962 | > 10 | 0.933 | > 10 | – | –
15 | COLO-205 (large intestine, suspension) | 0.192 | 0.00394 | 0.799 | 4.83 | 0.94 | > 5 | 0.803 | 9.72 | 0.809 | 5.13 | 0.787 | 6.84 | 0.984 | > 20 | 0.973 | > 5 | 0.984 | > 1.02 | 0.939 | > 2.56 | 0.985 | > 10 | 0.981 | > 10 | – | –
16 | COLO-678 (large intestine, semi-adherent) | 0.761 | 0.233 | 0.884 | > 10.2 | 0.983 | > 5 | 0.98 | > 20 | 0.733 | 3.58 | 0.981 | > 16 | 0.982 | > 20 | 0.98 | > 5 | 0.98 | > 1.02 | 0.985 | > 2.56 | 0.963 | > 10 | 0.984 | > 10 | – | –
17 | Ca-Ski (cervix, adherent) | 0.449 | 0.0228 | 0.44 | 0.429 | 0.698 | 1.21 | 0.861 | > 20 | 0.693 | 2.34 | 0.746 | 5.6 | 0.973 | > 20 | 0.97 | > 5 | 0.917 | > 1.02 | 0.981 | > 2.56 | 0.922 | > 10 | 0.958 | > 10 | – | –
18 | D-392MG (glioma, adherent) | 0.817 | 0.431 | 0.667 | 2.23 | 0.948 | > 5 | 0.951 | > 20 | 0.556 | 0.937 | 0.814 | 13 | 0.976 | > 20 | 0.965 | > 5 | 0.933 | > 1.02 | 0.868 | > 2.56 | 0.936 | > 10 | 0.979 | > 10 | 0.702 | 0.719
19 | DU-145 (prostate, adherent) | 0.343 | 0.0111 | 0.859 | 10.2 | 0.819 | 3.28 | 0.958 | > 20 | 0.718 | 2.81 | 0.95 | > 16 | 0.984 | > 20 | 0.847 | 4.35 | 0.983 | > 1.02 | 0.972 | > 2.56 | 0.976 | > 10 | 0.757 | 3.83 | – | –
20 | EFO-21 (ovary, adherent) | 0.444 | 0.021 | 0.865 | > 10.2 | 0.94 | > 5 | 0.933 | > 20 | 0.813 | 8.65 | 0.86 | > 16 | 0.976 | > 20 | 0.98 | > 5 | 0.952 | > 1.02 | 0.978 | > 2.56 | 0.944 | > 10 | 0.976 | > 10 | – | –

A lower IC50 marks a more sensitive line; a fit beyond the top or the lowest dose is shown as a bound at that dose. AUC sums up the same curve from the lowest dose to the 256-fold higher top dose; values near 1 show little effect. For part of these data: Any top dose called inferred comes from the curve model; the source does not state it. For part of these data: Drugs with an entry number were screened twice under separate entries, and the two screens often disagree.
